Experimental data taken from article PMC4336329 (PLoS ONE, 2015).
The campaign covered roughly 310,000 compounds. About 2,200 (0.71%) showed an effect of 50% or more. Effects have a minus sign here. This is one part of the list.

Molecular target: human ether-à-go-go-related gene (hERG) potassium channel (human, UniProt Q12809)
Assay: primary screen, population patch clamp on CHO cells stably expressing hERG

Sequence of human ether-à-go-go-related gene (hERG) potassium channel (Q12809 whole entry, looked up): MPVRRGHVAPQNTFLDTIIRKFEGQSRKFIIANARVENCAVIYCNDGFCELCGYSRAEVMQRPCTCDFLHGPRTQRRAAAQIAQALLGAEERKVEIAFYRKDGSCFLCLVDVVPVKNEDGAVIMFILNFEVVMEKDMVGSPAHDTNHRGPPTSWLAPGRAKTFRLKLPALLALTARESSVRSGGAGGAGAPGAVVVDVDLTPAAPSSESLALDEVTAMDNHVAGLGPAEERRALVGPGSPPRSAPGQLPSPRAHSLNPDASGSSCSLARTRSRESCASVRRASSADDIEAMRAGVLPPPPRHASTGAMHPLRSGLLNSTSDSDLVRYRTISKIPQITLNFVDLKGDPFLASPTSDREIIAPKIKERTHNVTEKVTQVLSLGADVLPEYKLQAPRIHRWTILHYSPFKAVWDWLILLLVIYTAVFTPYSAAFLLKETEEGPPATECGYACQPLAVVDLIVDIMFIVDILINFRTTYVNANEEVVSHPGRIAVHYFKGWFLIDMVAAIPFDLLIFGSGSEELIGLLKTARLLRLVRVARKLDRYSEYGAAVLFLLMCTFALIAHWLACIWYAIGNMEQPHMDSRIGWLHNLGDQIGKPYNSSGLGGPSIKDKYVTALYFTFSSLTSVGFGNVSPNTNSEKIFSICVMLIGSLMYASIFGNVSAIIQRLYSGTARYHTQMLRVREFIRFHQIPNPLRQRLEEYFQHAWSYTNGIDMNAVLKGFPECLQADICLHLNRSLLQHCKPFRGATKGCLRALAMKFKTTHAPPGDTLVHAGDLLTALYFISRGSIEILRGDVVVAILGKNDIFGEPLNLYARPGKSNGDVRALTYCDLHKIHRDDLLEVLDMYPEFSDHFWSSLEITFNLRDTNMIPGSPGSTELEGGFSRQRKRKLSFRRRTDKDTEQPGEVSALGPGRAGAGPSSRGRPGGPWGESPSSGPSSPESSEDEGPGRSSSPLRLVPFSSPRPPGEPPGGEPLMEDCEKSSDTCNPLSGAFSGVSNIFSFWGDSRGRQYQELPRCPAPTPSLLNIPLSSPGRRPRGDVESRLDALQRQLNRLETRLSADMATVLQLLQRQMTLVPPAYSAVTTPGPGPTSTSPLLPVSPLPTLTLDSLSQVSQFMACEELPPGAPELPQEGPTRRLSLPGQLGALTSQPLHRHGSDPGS

| Compound | hERG current change (%, negative = inhibition) at 1uM [%] |
| --- | --- |
| O=C(O)c1ccc([N+](=O)[O-])c(CS(=O)(=O)c2ccccc2)c1 | 11.9 |
| COc1ccc2c(C)c(Cl)c(=O)oc2c1 | 2.08 |
| COc1cccc(N2CCN(C3CCCC(C)C3)CC2)c1 (stereo not drawn) | -8.58 |
| O=c1[nH]c(=O)n(C2CCCCCC2)c(O)c1C=NCC1CCCO1 (stereo not drawn) | 11.7 |
| CC1CCCCC12NC(=O)N(CC(=O)Nc1sccc1C(N)=O)C2=O (stereo not drawn) | 10.1 |
| O=C(NCCc1ccccc1)C1CCC(=O)N1C1CCCC1 (stereo not drawn) | 10.5 |
| COc1cc(O)c(NC(C)=O)c2nonc12 | 10.8 |
| O=C(Oc1cccc2ccccc12)c1cc(Cl)nc2ccccc12 | -3.46 |
| CCN(CC)S(=O)(=O)c1ccc2c(c1)N(CC(=O)N1CCCC1)C(=O)CO2 | -8.49 |
| O=S(=O)([O-])c1ccc(N2N=C(c3ccccc3)CC2c2ccccc2)cc1.[Na+] (stereo not drawn) | 5.69 |
| CC(Oc1ccc(-c2ccccc2)cc1)C(=O)N/N=C/c1cccnc1 (stereo not drawn) | 7.56 |
| COC(=O)N/N=C/c1ccc(OC(=O)/C=C/c2ccco2)cc1 | 10.7 |
| COc1ccc2cc(-c3ccccc3)ncc2c1 | 11.7 |
| Nc1nc(CN2CCN(Cc3ccccc3)CC2)nc(Nc2ccc3c(c2)OCCO3)n1 | -52.3 |
| Cc1nn(Cc2ccc([N+](=O)[O-])cc2)c(=O)n1-c1cccc(F)c1 | 10.4 |
| CCn1ccnc1CNC(=O)CC1C(=O)NCCN1Cc1ccc(OC)cc1OC (stereo not drawn) | 9.16 |
| NC(=O)c1ccccc1NC(=O)c1ccccc1F | 0.365 |
| O=C(NCCN1CCN(c2ccccc2)CC1)c1cccn2c(=O)c3ccccc3nc12 | -10.8 |
| CCOc1ccc2oc(C(=O)OCC(=O)NC3CCCCC3)c(C)c2c1 | -7.14 |
| COc1ccc(-c2cc(C(F)F)n3ncc(C(=O)Nc4cccc(S(=O)(=O)N5CCOCC5)c4)c3n2)cc1 | 4.57 |
| CCNc1oc(-c2cccc3ccccc23)nc1C#N | 12 |
| O=C(Nc1nc2ccccc2[nH]1)c1cccc([N+](=O)[O-])c1 | 14.6 |

| Compound | hERG current change (%, negative = inhibition) at 1uM [%] |
| --- | --- |
| CCOCCCNC(=O)Cc1c(C(=O)O)[nH]c2ccc(Cl)cc12 | 6.44 |
| CC(=O)Nc1ccc(C(=O)OCC(=O)N2CCN(C(=O)c3ccco3)CC2)cc1 | 7.29 |
| COCCn1c(SCC(=O)N2CCOCC2)nnc1-c1ccncc1 | 7.79 |
| COc1ccc(C(=O)NC2CC2)cc1OC1CCN(C/C=C/c2ccccc2)CC1 | -84.3 |
| CCOC(=O)C(C)CC(C)C(=O)N1CCOCCOCCN(C(=O)C(C)CC(C)C(=O)OCC)CCOCC1 (stereo not drawn) | 5.45 |
| COc1cc2c(cc1OC)C(=S)NC(C)(C)C2 | 14.8 |
| CNc1nnc(-c2cc3cc(Cl)ccc3oc2=O)s1 | 7.33 |
| Cc1ccc(S(=O)(=O)N2CCN(C(=O)CCn3cncn3)CC2)cc1 | 3.76 |
| O=C(Cn1cnc([N+](=O)[O-])n1)NC1CC1 | 10.4 |
| C/C(=C\C(=O)C(F)(F)F)Nc1ccc(C)cc1 | 9.13 |
| COc1ccccc1NC(=O)CSc1nnc(-c2ccncc2)n1CC1CCCO1 (stereo not drawn) | 4.17 |
| c1ccc(-c2cn3c(n2)CCc2ccc4cccnc4c2-3)cc1 | 1.62 |
| O=C(CSc1nnc(-c2c[nH]c3ccccc23)o1)NCC1CCCO1 (stereo not drawn) | 14.4 |
| COC(=O)c1c(NC(=O)c2ccco2)sc2c1CCC2 | 18.8 |
| CCCNC(=O)CSc1nc(Cc2ccccc2)nc2ccccc12 | 5.1 |
| CN(C)CCN(C(=O)c1cccc(Cl)c1)c1nc2c(Cl)cccc2s1.Cl | -0.637 |
| COC(=O)c1cc(NC(=O)c2c(F)c(F)c(F)c(F)c2F)cc(C(=O)OC)c1 | 13.5 |
| CCOc1ccc(N(CC(=O)NCCSc2ccccn2)S(=O)(=O)c2ccc(Cl)cc2)cc1 | 9.55 |
| CO/N=C/CC(=O)c1cnc(-c2ccc(Cl)cc2)s1 | 7.46 |
| COc1cc(-c2nnc(SCC(=O)N(C)C3CCS(=O)(=O)C3)o2)cc(OC)c1OC (stereo not drawn) | 10.6 |
| O=C(CCS(=O)(=O)c1ccccc1)Nc1ccccc1-c1nc2ccccc2s1 | 17.2 |
| O=C(O)C1=C[C@@H](c2ccc(C(F)(F)F)cc2)C[C@@H](OCc2ccc(CO)cc2)O1 | 16.6 |

| Compound | hERG current change (%, negative = inhibition) at 1uM [%] |
| --- | --- |
| COc1ccccc1C(C(=O)NC1CCCC1)N(C(=O)c1csnn1)C1CC1 (stereo not drawn) | 12.1 |
| Cn1cccc1C(=O)NC1CCCCC1 | 5.24 |
| Nc1ncnc(NC2CCS(=O)(=O)C2)c1[N+](=O)[O-] (stereo not drawn) | -2.55 |
| Cc1coc2c(C)c3oc(=O)c4c(c3cc12)CCCC4 | 12.3 |
| CN1CCCN(Cc2ccc(Cl)cc2Cl)CC1 | -13.8 |
| CC(C)(C)CC(C)(C)NC(=S)Nc1ccc2nc(-c3ccccn3)c(-c3ccccn3)nc2c1 | 2.06 |
| Cc1cc(C(=O)Nc2ccc(C)c(C)c2)n(-c2ccccc2)n1 | 10.5 |
| COCCn1c(=S)[nH]c2cc(C(=O)N3CCC(C(N)=O)(N4CCCCC4)CC3)ccc2c1=O | 4.92 |
| COc1ccc(-c2cnc3nc(/N=C/N(C)C)nn3c2/N=C/N(C)C)cc1 | 6.59 |
| COC(=O)c1ccc(Sc2ccccc2NS(=O)(=O)c2ccc(OC)cc2)nc1 | 11 |
| Cc1ccccc1NC(=O)NNC(=O)c1ccc2ccccc2c1 | 15.8 |
| COc1ccc2nc(COC(=O)c3cccs3)c(C(C)=O)[n+]([O-])c2c1 | 9.07 |
| COc1cccc(S(=O)(=O)NCc2ccc(C(=O)Nc3ccc(Cl)cc3)cc2)c1 | 5.08 |
| Cc1c(OCC(=O)NCc2cccnc2)ccc2c3c(c(=O)oc12)CCCC3 | 11 |
| O=C(O)c1ccc(N2C(=O)CC(SC(=NCc3ccc4c(c3)OCO4)Nc3ccc(F)cc3)C2=O)cc1 (stereo not drawn) | 21.9 |
| Nc1nc(NCCO)nc(NCC2CCCO2)c1[N+](=O)[O-] (stereo not drawn) | 11.1 |
| CCc1nnc(NC(=O)CN2CCN(Cc3cccc(OC)c3)CC2)s1 | 4.66 |
| O=C(COC(=O)CCc1nc2ccccc2n1-c1ccccc1)Nc1ccc(N2CCCCC2)cc1 | 10.6 |
| COC(=O)c1ccc(CNC(=O)COC(=O)C23CC4CC(CC(C4)C2)C3)cc1 | 10.3 |
| Cc1ccc(OCC(=O)Nc2ccc(C(=O)O)cc2NC(=O)COc2ccc(C)c(C)c2)cc1C | 14.1 |
| Cc1ccc(NC(=O)CN(C)C(=O)C(Sc2ccccc2)c2ccccc2)cc1 (stereo not drawn) | 9.16 |
| CC(=O)c1ccc(N2CCN(CC(O)c3ccccc3)CC2)cc1 (stereo not drawn) | 0.0358 |

| Compound | hERG current change (%, negative = inhibition) at 1uM [%] |
| --- | --- |
| CCN(CC)c1ccc(C(=O)OCC(=O)Nc2cc3oc4ccccc4c3cc2OC)cc1 | 10.7 |
| O=C(COC(=O)CCc1ccc(S(=O)(=O)N2CCOCC2)cc1)NC1CCCCCC1 | -2.65 |
| CC#CC(=O)N1CCCC(Cc2cccc(OC)c2)(C(=O)OCC)C1 (stereo not drawn) | 21.4 |
| O=C(NC(=S)Nc1ccc(C(=O)N2CCOCC2)cc1)c1ccc([N+](=O)[O-])cc1 | 18.3 |
| Cc1csc(NC(=O)c2ccc(Cn3nc(C)c(Br)c3C)o2)n1 | 7.27 |
| COc1cccc(C2c3c(oc4ccc(Cl)cc4c3=O)C(=O)N2c2cc(C)on2)c1OC (stereo not drawn) | 8.41 |
| CCC(C)NC(=O)Cn1cccc1C(=O)c1ccccc1 (stereo not drawn) | -0.844 |
| CN1CCN(CCCC(=O)c2ccc(F)cc2)CC1.Cl | -1.2 |
| CN(C)CCn1c(=O)n(-c2ccc(F)cc2)c(=O)c2c3c(sc21)CCCCC3 | 7.59 |
| CCn1c(NCc2ccccn2)nc2ccccc21 | 9.53 |
| Cc1cccc(Nc2nc(N3CCCC3)nc(N3CCCC3)n2)c1 | 1.05 |
| COc1ccc(NC(=O)Cn2c(CCC(=O)O)ccc2-c2ccc(C)cc2)cc1 | 4.96 |
| COc1cccc(CNC(=O)CCn2ccc3cc(S(=O)(=O)N4CCC(C)CC4)ccc32)c1 | 11.4 |
| CCc1ccc(-c2nc(C(N)=O)c3[nH]c(=O)n(-c4ccccc4OC)c3n2)cc1 | 10.2 |
| COC(=O)C1=C(C)NC(=O)NC1c1cccc(OC)c1OCc1ccccc1 (stereo not drawn) | -3.16 |
| Cc1cccc(-c2oc3ccccc3c2C#CCCO)c1 | 10.3 |
| COC(=O)c1c(NC(=O)c2ccco2)sc2c1CCN(C(C)=O)C2 | 5.74 |
| CSc1ccc(CN(C)C(=O)c2cccc(S(=O)(=O)N3CCN(Cc4ccccc4)CC3)c2)cc1 | 11.2 |
| CCOc1ccc(OCC)c(NC(=O)C2CCCN(c3ncccn3)C2)c1 (stereo not drawn) | -1.69 |
| Cc1n[nH]c(C)c1S(=O)(=O)N(CC(=O)N1CCc2ccccc21)c1ccc(C(C)C)cc1 | 10.9 |
| O=C(NCCc1ccccc1)C1CCC(CNS(=O)(=O)c2cccc3cccnc23)CC1 (stereo not drawn) | -5.64 |
